Sequences with one replicate were seen in a single cluster, so their values are uncertain.
Tested on: ATP
Test: switch fluorescence ratio, 500 uM ATP over buffer (Cy3 cluster intensity, sum of 5 cycles each) (fold (ratio)); higher = stronger signal-on switching upon ATP binding; sequences stand for … in TCGTCGGCAGCGTCAGATGTGTATAAGAGACAGTTTTTTTTTTTTTTTTTTTTTTTTT…TC
Conditions: aptamer strand: ATP DNA aptamer (quencher-CACCTGGGGGAGTATTGCGGAGGAAGG + anchor), 100 nM annealed; ATP concentration: 500 uM; one replicate
Procedure, shortened: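 Imaging in selection buffer was followed by imaging after 15 min with 500 uM ATP at 22 °C, for Cy3-labelled switching-strand clusters annealed to 100 nM quencher-labelled ATP aptamer on a modified Illumina MiSeq flow-cell. Five of these buffer/ATP cycles ran, separated by NaOH stripping and re-annealing. The fluorescence ratio per cluster is summed target-cycle over summed buffer-cycle Cy3 intensity, averaged per switch-domain sequence; clusters outside 100-1000 RFU were removed.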
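Further: ATP exposure 15 min at 22 °C before imaging.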

ATGTTAGAAT
switch fluorescence ratio: 1.04

TCCCGCTCGT
switch fluorescence ratio: 1.1

GGGGCTCGGC
switch fluorescence ratio: 1.01

ATTCATCGCC
switch fluorescence ratio: 1.02

GGTCGCCTGA
switch fluorescence ratio: 1.02

CGTTCGGCGG
switch fluorescence ratio: 1.06

TACCTGCCAT
switch fluorescence ratio: 1.08

GCATGCTAGA
switch fluorescence ratio: 1.02

CGCTGGTGTG
switch fluorescence ratio: 0.99

AACGGATCGC
switch fluorescence ratio: 1.03

GGACGTCTGG
switch fluorescence ratio: 0.965

GTGTCGCCAT
switch fluorescence ratio: 1.01

CAATGACTTT
switch fluorescence ratio: 1.07

TTAGCTCCCT
switch fluorescence ratio: 1.03

AAACGGCTGC
switch fluorescence ratio: 1.01

CTAACCGGT
switch fluorescence ratio: 1.01

ATGTGTACAC
switch fluorescence ratio: 1.02

TATACTCATA
switch fluorescence ratio: 1.07

TTTTATAATC
switch fluorescence ratio: 1.01

GTTGGATCTC
switch fluorescence ratio: 0.944

TTTGACTAG
switch fluorescence ratio: 0.955

GGATAAGAGA
switch fluorescence ratio: 0.973

GCAGTGCAAC
switch fluorescence ratio: 0.999

TACGTCCCGT
switch fluorescence ratio: 1.01

GACGAATTGA
switch fluorescence ratio: 1.01

CCCTTTTCTT
switch fluorescence ratio: 1.02

TTGCTCGGTG
switch fluorescence ratio: 0.983

TATGAGTTAT
switch fluorescence ratio: 1.01

CGAGTCAGCC
switch fluorescence ratio: 1.02

AAGACCGATT
switch fluorescence ratio: 0.971

GGAAAATCT
switch fluorescence ratio: 0.98

ACAAAGAGTA
switch fluorescence ratio: 1.01

GTCGAGCCCG
switch fluorescence ratio: 0.98

CGAATACCGG
switch fluorescence ratio: 1.02

GGAGGACCCA
switch fluorescence ratio: 0.998

AAATCACCAG
switch fluorescence ratio: 1.05

TCGGCCTTAC
switch fluorescence ratio: 2.19

CGAACATCGG
switch fluorescence ratio: 0.927

TCACTCCTAT
switch fluorescence ratio: 1.07

TGCGGCTATT
switch fluorescence ratio: 1.05

CGAGGATTAT
switch fluorescence ratio: 1.03

ACGGTTAAGC
switch fluorescence ratio: 1.06

AACCAGGGCA
switch fluorescence ratio: 1.06

TCGGTGGGCC
switch fluorescence ratio: 1.02

CTCCTGGTAG
switch fluorescence ratio: 1.21

AAATTTATAG
switch fluorescence ratio: 1.02

GACACCGAAA
switch fluorescence ratio: 2.57

TAGCGGGTAT
switch fluorescence ratio: 1.04

TACTGATCAT
switch fluorescence ratio: 1.01

TGATTCAATT
switch fluorescence ratio: 0.973

TCCTCCATAG
switch fluorescence ratio: 3.26

GACGAACCTA
switch fluorescence ratio: 1.32

CAATCATACA
switch fluorescence ratio: 1.05

CGGTAAAGAG
switch fluorescence ratio: 1.06

AACGTTCACG
switch fluorescence ratio: 1

GCCCTTGACG
switch fluorescence ratio: 0.992

ACGACGAGGA
switch fluorescence ratio: 1.13

CGCTAAGAGT
switch fluorescence ratio: 1.05

AGACAGAGAC
switch fluorescence ratio: 1.01

ACTTGGATTT
switch fluorescence ratio: 1.02

CGCCGCTGGA
switch fluorescence ratio: 1.41

ATACTACGTA
switch fluorescence ratio: 1.04

GCGTTTATAG
switch fluorescence ratio: 0.995

TGATTTAGTC
switch fluorescence ratio: 1.01

CTTAACCGTT
switch fluorescence ratio: 0.993

CTCGTACGTC
switch fluorescence ratio: 0.99

TCGACGGTGA
switch fluorescence ratio: 0.993

AGTAACGTCA
switch fluorescence ratio: 1.07

GTGCTGGCCG
switch fluorescence ratio: 1.05

GGACAGGCCT
switch fluorescence ratio: 1.09

GTCACATGG
switch fluorescence ratio: 0.999

ATCCGAACCA
switch fluorescence ratio: 1.01

ATCTCATATG
switch fluorescence ratio: 1

AACTCGCCCC
switch fluorescence ratio: 1.08

TCAAGCTTCT
switch fluorescence ratio: 1.07

CGTTTTGATG
switch fluorescence ratio: 0.993

TGGCGGTGGA
switch fluorescence ratio: 0.983

TATTTCCCTG
switch fluorescence ratio: 0.962

ATGTGCGTAT
switch fluorescence ratio: 0.975

AAGCCGTGGA
switch fluorescence ratio: 0.962

AGAAAAGAAA
switch fluorescence ratio: 0.947

TGTTTTTA
switch fluorescence ratio: 0.998

TTCGATTACT
switch fluorescence ratio: 1.54

TTAACAGAGG
switch fluorescence ratio: 0.969

GCTATACTGG
switch fluorescence ratio: 1.24

AATGCAGTGG
switch fluorescence ratio: 0.947

ATGACCCAGT
switch fluorescence ratio: 1.02

ATTCATACCG
switch fluorescence ratio: 0.982

TCCTAATAGC
switch fluorescence ratio: 1.06

GATTGCACGT
switch fluorescence ratio: 1.02

TACCCGTCTC
switch fluorescence ratio: 1.02

GGATGCGCCC
switch fluorescence ratio: 1.02

ACCGGGGCTT
switch fluorescence ratio: 1.11

TCCGTGGCGT
switch fluorescence ratio: 1.11

ATTGGTCGGA
switch fluorescence ratio: 0.971

CGGTATTGTA
switch fluorescence ratio: 1.02

CGTAAATTAA
switch fluorescence ratio: 1.02

CTCTTCCTAC
switch fluorescence ratio: 2.08

CGGCCAGGCA
switch fluorescence ratio: 0.969

AGGCGATGCT
switch fluorescence ratio: 1.06

TATTCTGGA
switch fluorescence ratio: 1.06

ACCCAGGGGT
switch fluorescence ratio: 2.92

AGAAACCTCC
switch fluorescence ratio: 2.46

ATAAGAGATT
switch fluorescence ratio: 1.07

ATCCAAGAGC
switch fluorescence ratio: 1

CGGTGCCGTT
switch fluorescence ratio: 1.01

TCAGCTACGA
switch fluorescence ratio: 1.15

CGGTTACGGT
switch fluorescence ratio: 0.993

GCTTATTCTC
switch fluorescence ratio: 0.956

TGATGATACG
switch fluorescence ratio: 0.989

CCAGATCGAT
switch fluorescence ratio: 1.06

TGGCACTAGC
switch fluorescence ratio: 1.02

GCGAACCTTG
switch fluorescence ratio: 1.07

CACTGGGTG
switch fluorescence ratio: 1.33

CGCGATGAG
switch fluorescence ratio: 1.15

ATCTAGAATA
switch fluorescence ratio: 1.02

TAGTGACCAG
switch fluorescence ratio: 1.01

AGATAAGAA
switch fluorescence ratio: 0.966

AGTGCCAAC
switch fluorescence ratio: 1.02

GCTGGTGTTC
switch fluorescence ratio: 1.01

TTTTGCTTCA
switch fluorescence ratio: 1.03

GCGTTGGGCC
switch fluorescence ratio: 1.05

GACAGAAGGT
switch fluorescence ratio: 1.04

TTTAATCCAC
switch fluorescence ratio: 0.995

CAGTAGGGAT
switch fluorescence ratio: 0.998

CAGAATGGAT
switch fluorescence ratio: 0.996

CGGTAGGACT
switch fluorescence ratio: 1.01

CAAAGAAGAG
switch fluorescence ratio: 1.01

GGTATGCTTG
switch fluorescence ratio: 1.08

GCGAATTGTA
switch fluorescence ratio: 0.962

TCTTTAACGA
switch fluorescence ratio: 1.04

AGAATCGGGG
switch fluorescence ratio: 1.06

GTCGAAGCAG
switch fluorescence ratio: 1.11

AGCGATGGTA
switch fluorescence ratio: 1.03

AGGTACGTGA
switch fluorescence ratio: 1.1

GTTCCGCACG
switch fluorescence ratio: 2.8

CAAAGATA
switch fluorescence ratio: 1.01

ATACAAGGGT
switch fluorescence ratio: 0.989

CGTACGAATT
switch fluorescence ratio: 0.996

CAAAGTGCTA
switch fluorescence ratio: 1.02

AGCCCAATAG
switch fluorescence ratio: 2.46

TACATTATGC
switch fluorescence ratio: 1.07

CCGCTTCGGG
switch fluorescence ratio: 1.01

TTAAATTGG
switch fluorescence ratio: 1.01

TATTTTAAT
switch fluorescence ratio: 0.968

TCACAAAACG
switch fluorescence ratio: 1.06

TGAGGATTGT
switch fluorescence ratio: 0.99

CTCATTCCGG
switch fluorescence ratio: 1.01

GGGGATTCGG
switch fluorescence ratio: 1.06

CGCACGTGAG
switch fluorescence ratio: 0.94

ATGTCGACGT
switch fluorescence ratio: 1.07

TCCGTCAGTG
switch fluorescence ratio: 1.15

TTAACCTTAA
switch fluorescence ratio: 1.16

TGGGCAGGCG
switch fluorescence ratio: 1.04

TCGAAATTAC
switch fluorescence ratio: 1.8

ATTTACCCTA
switch fluorescence ratio: 1.05

CGTTCTTTGC
switch fluorescence ratio: 1.02
